The record followed here is paper doi:10.1101/660837 (bioRxiv, 2019).

The target in the assay is Gαs (human, short splice variant) (human, UniProt P63092-2 1-380). Kind of assay: cryo-EM structure.

B1: Human GCGR ([…]) with N-terminal FLAG and C-terminal octahistidine tag (receptor)
chain: not shown
In the case of B1, the binding result is “binds”.
